PubChem BioAssay AID493208 (National Center for Advancing Translational Sciences (NCATS), 2011)
About 340 (0.77%) of roughly 44,000 compounds were called active. About 5% were inconclusive and are not listed. The call rests on the fitted dose curve; in most records, active means well fitted inhibition curve with a large enough effect; inconclusive means small, poorly fitted or top-dose-only effect; inactive means flat fitted curve, though single readings scatter. The list shows a part of the results.

Test: Acumen qHTS Assay for Inhibitors of the mTORC1 Signaling Pathway in MEF (Tsc2-/-, p53-/-) Cells: Sytravon;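 further: plate controls were DMSO for no effect and rapamycin for full effect; nearly all actives have a fitted effect of over 50% in size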
Settings: phospho-rpS6 immunofluorescence/PI, 24 h; series mostly up to 38.3 µM; activity change, negative = inhibition: at the top concentration
Procedure, shortened: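 Plate MEFs (Tsc2-/-, p53-/-, empty vector) in DMEM/10% FBS; after 24 h add compound, incubate 24 h at 37 degree Celsius; fix in PFA/TX-100, block, stain phospho-rpS6 and 10 uM PI; scan at 488 nm; report % positive cells.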

Activity change, negative = inhibition, inactive:
CCOC(=O)c1ccc2c(c1)N(CC(=O)Nc1ccc(CC)cc1)C(=O)c1ccccc1S2 1.13%, COc1cc(NC(=O)Cn2cnc3sc(C)c(S(=O)(=O)N4CCN(C)CC4)c3c2=O)cc(OC)c1OC -1.36%, Cc1ccc(Nc2c(-c3ccc(N4CCOCC4)cc3)nc3ncccn23)cc1C 6.52%, O=C(CSc1oc(-c2ccco2)nc1S(=O)(=O)c1ccccc1)c1ccc(Cl)cc1 -3.15%, CCOC(=O)c1ccc(NC(=O)CC2C(=O)N(c3ccccc3)C(=O)N2C2CCCCC2)cc1 (stereo unspecified) -0.0576%, CCOc1cccc(C(=O)Nc2ccc(NC(=O)c3ccc(Br)cc3)cc2)c1 -5.13%, CCN(c1ccc(C)cc1C)S(=O)(=O)c1nnc(NC(=O)c2ccccc2OC)s1 3.59%, CCOC(=O)c1oc2ccc(S(=O)(=O)n3nc(-c4cc(OCC)c(OCC)c(OCC)c4)cc3N)cc2c1C -1.77%, CCc1ccc(N2CCn3c2nc2c3c(=O)n(CCCc3ccccc3)c(=O)n2C)cc1 0.577%, CCCc1cnc2c(c1SCC(=O)Nc1cccc(C)c1C)c(=O)n(C)c(=O)n2C -13%, CCOc1ccc(-c2nonc2NC(=O)COc2ccccc2)cc1 -2.47%, CCOC(=O)c1ccc(NC(=O)c2c(NCc3cc(OC)c(OC)cc3OC)sc3c2CCCC3)cc1 -7.88%, COc1ccc(-n2cc(-c3ccccc3)c3c(NCCc4ccc(OC)c(OC)c4)ncnc32)cc1 7.19%, CCN1CCN(c2cc3c(cc2F)c(=O)c(S(=O)(=O)c2cc(C)cc(C)c2)cn3CC)CC1 -7.81%, O=C(NCCCCc1ccccc1)c1nn(-c2ccccc2)nc1CO -1.72%, CC1=C(C(=O)OCC2CCCCC2)C(c2cccc(F)c2F)CC(=O)N1 (stereo unspecified) -0.27%, COc1ccc(NC(=O)Cn2nnc(C(=O)Nc3ccc(C)c(F)c3)c2N)cc1Cl -4.17%, COc1ccc(CNC(=O)CN(c2ccc(OC)cc2)S(=O)(=O)c2c(C)[nH]c(=O)[nH]c2=O)cc1 -17.8%, Cc1ccc(-n2c(-c3ccco3)nc3c(cnn3-c3ccc(C)cc3)c2=O)cc1 3.6%, O=C(Cc1ccccc1F)N1CCC(c2nc3c(nnn3Cc3cccc(Cl)c3)c(=O)[nH]2)CC1 -3.48%, Cc1cc(C)cc(OCCn2c(CCNC(=O)C3CCCCC3)nc3ccccc32)c1 -1.15%, CCOc1ccc(NC(=O)c2c(NC(=O)c3ccccc3Br)sc3c2CCC(C)C3)cc1 (stereo unspecified) 8.71%, CCOc1ccc(NC(=O)CC2C(=O)N(c3ccc(C)cc3)C(=O)N2Cc2ccc(OC)cc2)cc1 (stereo unspecified) 2.22%, CCC(=O)N1CCc2cc(Br)cc(S(=O)(=O)N(CC)Cc3ccccc3)c21 -8.38%, COc1ccc(OC)c(NC(=O)N(C)CCc2c(C)nn(C)c2C)c1 0%, CCc1cccc(C)c1NC(=O)c1cn2c3c(ccc(Cl)c3c1=O)OC(C)C2 (stereo unspecified) -4.78%, Cc1ccc(-c2nc3ncccc3o2)cc1NC(=O)c1ccc(-c2cccc(Cl)c2C)o1 2.03%, Cc1nc(-c2cccc(F)c2)sc1CCNC(=O)C(=O)Nc1ccc2c(c1)OCO2 -3.22%, CCOc1ccc(S(=O)(=O)NCC(c2ccc(N(C)C)cc2)N2CCc3ccccc32)cc1 (stereo unspecified) -15.8%, CCCCN(C)S(=O)(=O)c1cc(-c2cc(C)no2)ccc1C -4.73%, COC(=O)CSc1ccc2nnc(CCNS(=O)(=O)c3ccccc3)n2n1 -3.46%, Cc1cc(-c2nc3ncccc3o2)ccc1NC(=O)c1ccc(Cl)cc1 -0.0773%, Cc1cccc(NC(=O)c2c(N)sc3c2CCC(C)C3)c1 (stereo unspecified) -16.1%, COc1ccc(-c2cccc(NS(=O)(=O)c3cc(C)ccc3OC)c2)nn1 0%, O=C(Nc1ccc2nn(-c3ccc(Cl)cc3)nc2c1)c1cc2ccccc2o1 1.92%, Cc1ccccc1Nc1c(-c2ccc(N3CCOCC3)cc2)nc2ccc(Cl)cn12 0.386%, Cc1ccccc1NC(=O)c1c(NC(=O)c2cccs2)sc2c1CCC(C)C2 (stereo unspecified) 3.68%, COc1ccc(C(=O)NCC(c2ccco2)S(=O)(=O)c2cccs2)cc1 (stereo unspecified) -1.65%, N#Cc1nc(/C=C/c2ccc(F)cc2)oc1NC1CCCCC1 -1.44%, COc1ccc(N(C)C(=O)C2CCN(S(=O)(=O)c3cc(Br)cc4c3N(C(C)=O)CC4)CC2)cc1 3.67%, Cc1ccc(OCc2cc(=O)n3ccsc3n2)c(NC(=O)c2ccco2)c1 0.0461%, Cn1c(=O)n(C)c2cc(N3CCCCC3)c(NC(=O)c3c(F)cccc3F)cc21 -3.79%, CCOC(=O)c1cc(-c2ccccc2)n(CCC(=O)NCCc2ccc(OC)c(OC)c2)c1C -8.27%, COc1ccc(-c2nc3cc(NC(=O)c4cc5ccccc5o4)ccc3o2)cc1 3.79%, Cc1ccn2c(Nc3ccccc3C)c(-c3ccccc3)nc2c1 1.91%, Cc1cccc(OCC(=O)Nc2ccccc2OCc2cc(=O)n3cc(C)ccc3n2)c1 -3.34%, Cc1ccc(NC(=O)CSc2nnc(COc3ccc(Cl)cc3)o2)c(C)c1 2.26%, O=C(Nc1ccc2nc(SCC(=O)N3CCOCC3)sc2c1)c1ccccc1Cl 0.771%, Cc1ccc(NCc2cccn2-c2nnc(N3CCC(C(=O)NCc4ccc(F)cc4)CC3)s2)cc1 -3.87%, CCn1ccc2cc(S(=O)(=O)N3CCC(C(=O)NCc4ccc(F)cc4)CC3)ccc21 -8.64%, O=C(Cn1c(=O)n2nc(-c3cccc(F)c3)nc2c2ccccc21)NCc1ccc(Cl)cc1 3.08%, COc1cccc(NC(=O)Cn2c(=O)n(Cc3ccco3)c(=O)c3cc(OC)c(OC)cc32)c1 -20.5%, COc1ccccc1CNC(=O)CS(=O)(=O)Cc1nc(-c2ccccc2C)oc1C -0.493%, CSc1ccc(CNC(=O)Cn2ccc3cc(S(=O)(=O)N4CCCC4)ccc32)cc1 -9.04%, CC(C)CCNC(=O)CSc1nc2ccccc2nc1Cc1ccc(Cl)cc1 2.95%, CN(C)c1ccc(C(=O)NCc2ccc3c(c2)CCN3C(=O)c2ccccc2)cc1 -1.46%, CC1CCN(c2nc(-c3ccc(Br)cc3)nc3ccccc23)CC1 0.802%, CN(C)c1ccc(CNC(=O)c2sc3ncccc3c2-n2cccc2)cc1 0.203%, Cc1cc(C)cc(NC(=O)CCN2C(=O)c3ccccc3Sc3ncccc32)c1 2.37%, CC1CCCCN1CCCNC(=O)Cn1ncc2c3ccccc3n(Cc3ccccc3F)c2c1=O (stereo unspecified) -0.352%, Cc1ccc(-c2cc(C(F)(F)F)c(C#N)c(SCC(=O)Nc3ccccc3F)n2)cc1 -0.281%, CCN(c1ncnc2c1cnn2-c1cccc(Cl)c1)C1CCCCC1 -0.604%, COc1cccc(CNC(=O)CN2C(=O)CSc3ccc(S(=O)(=O)N4CCCC4)cc32)c1 1.34%, COCCn1c(C)cc(O)c(C(c2ccc(Cl)cc2)N2CCCCC2)c1=O (stereo unspecified) 5.94%, COc1ccc(C2C(=O)N(C3CCCCC3)CC(=O)N2C2CCCCC2)cc1 (stereo unspecified) 4.81%, CCN(Cc1ccccc1)C(=O)C(CC(C)C)NS(=O)(=O)c1ccc2c(c1)CCN2C(C)=O (stereo unspecified) -0.922%, O=C(Nc1ccc2nc(SCC(=O)N3CCOCC3)sc2c1)c1ccc(Cl)cc1 0.885%, O=C(c1ccccc1)N1CCCCC1CCN1CCCCC1 (stereo unspecified) 3.94%, Cc1ccc(-n2c(=O)c3ccccc3n(CC(=O)Nc3cccc(C(F)(F)F)c3)c2=O)cc1 -0.0733%, Cc1cccc(N2CCN(C(=O)c3nn(C)c4c3CS(=O)(=O)c3ccccc3-4)CC2C)c1 (stereo unspecified) 10.4%, N#C/C(=C\c1ccc(Cl)cc1)c1nc(-c2cc3c(ccc4ccccc43)oc2=O)cs1 -9.06%, COc1cccc(N2CCN(c3ncnc4onc(-c5ccc(Cl)cc5)c34)CC2)c1 -2.94%, CN(C1CCCCC1)S(=O)(=O)c1ccc2c(c1)c(=O)c(C(=O)NCc1ccc(Cl)cc1)cn2C 0.233%, O=C(CN1C(=O)CC(c2ccc(F)cc2)=Nc2ccccc21)NCc1ccccc1Cl -17%, COc1ccc(C(=O)Nc2ccc(-c3cc(C(F)(F)F)nn3-c3ccccc3)cc2)cc1OC 4.5%, CC(NC(=O)c1cc2sccc2n1Cc1ccc(F)cc1)c1ccccc1 (stereo unspecified) -15.9%, CCc1cccc(C)c1NS(=O)(=O)c1ccc(-n2cccn2)cc1 -3.97%, COc1ccc(-c2nn(-c3ccc(F)cc3F)c3c2cnc2ccc(F)cc23)cc1 0%, CC(=O)N1CCCc2cc(S(=O)(=O)NCc3ccc(OC(C)C)cc3)ccc21 -8.6%, N#Cc1ccccc1NC(=O)C(=O)NCC(c1cccnc1)N1CCN(c2ccccc2)CC1 (stereo unspecified) 0%, Cc1cccc(C(=O)Nc2cccc(C(=O)OCc3cc(=O)n4nc(C5CC5)sc4n3)c2)c1 0%, CCOc1ccc(C(=O)Nc2ccc3nc(SCC(=O)N4CCOCC4)sc3c2)cc1 -3.75%, Cc1ccc(OCC(=O)Nc2ccc(-c3nc4ccc(C)cc4o3)cc2)cc1 -4.2%, CCN1CCN(C(=O)c2ccc3c(c2)N(Cc2cc(C)ccc2C)C(=O)c2ccccc2S3(=O)=O)CC1 -1.9%, CCOC(=O)c1c(C)oc2nc(C)nc(NCCc3ccc(S(N)(=O)=O)cc3)c12 2.72%, O=C(NCCc1ccccc1)c1cnc2sc(N3CCOCC3)nn2c1=O -0.668%, CCOc1ccccc1Nc1ccc2cc(S(=O)(=O)N3CCCCC3)ccc2n1 -20.4%, CCCSCCCNC(=O)CN1C(=O)COc2ccc(S(=O)(=O)N3CCCCCC3)cc21 -5.33%, Cc1cc(NC(=O)CN(c2cccc(C)c2C)S(=O)(=O)c2ccccc2)ccc1Br -17.7%, O=C(Nc1ccc(F)cc1F)C1CCCN1S(=O)(=O)c1cccc2nsnc12 (stereo unspecified) -4.68%, COc1ccc(CCC(=O)NCc2ccc3c(c2)CCN3C(=O)c2cccc(C)c2)cc1 -6.13%, CCCOc1ccc(CNC(=O)C2CCN(c3nn4c(=O)cc(C)nc4s3)CC2)cc1 -0.225%, CCOC(=O)c1[nH]c(C)c(C(=O)NCc2ccc(F)cc2)c1C -5.46%, Cc1cccc(-c2nnc(SCCC(=O)O)o2)c1 -0.398%, Cc1cccc(NC(=O)CN2C(=O)CCc3ccccc32)c1C -12.6%, CCOc1ccc(CCNC(=O)c2cnc3c(-c4ccccc4)c(C)nn3c2C)cc1OCC -9.55%
